# Measurements: the supplement of paper PMC11417369
# ± gives the standard deviation of the averaged measurements. The list shows a part of the results.
# Tested on: PfAP2-LT AP2 domain (GST-tagged)
# Experiment: gcPBM binding intensity (ln(normalized median fluorescence intensity)); higher = stronger DNA binding
# In short: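 Plasmodium falciparum DNA-binding domains carrying a GST tag were expressed in E. coli and applied for 1 h, at about 25 μg on average, to an Agilent 4 × 180k array. The array held primer-extended double-stranded 36-bp intergenic genomic probes together with negative controls, and binding took place in 1× PBS with 1% milk, 0.2 mg/ml BSA, 0.5% salmon testes DNA and 0.03% Triton X-100. An Alexa488 anti-GST antibody detected bound protein, and the array was scanned at 488 nm. Binding intensity is taken as the highest Masliner-normalised natural-log median intensity across replicate spots of either probe orientation.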
row,Sequence,gcPBM binding intensity (ln)
1,AATTTTTTTATAGCACGTACAAAAATACAAAATACA [XGTACX_site1569],8.61 ± 0.33
2,AAAAAAAAAAAGAAGGGTACATATTATATATAATAT [XGTACX_site6204],8.71 ± 0.45
3,TATATATAAACATAATGTACATATAATAAGTAATAT [XGTACX_site497],8.95 ± 0.4
4,AGCCCAAAAAAGTAGACATGCAAAAACTTTACAACT [TGCATGCA_site550],8.93 ± 0.4
5,GATCATTCTAAATATAAACACACATAAATATATACA [CACACA_site9108],8.89 ± 0.43
6,ATAATATAATAATATTGTACATGGTCAAATATGAAA [XGTACX_site8390],8.77 ± 0.4
7,GTTTATATATTATAAAGTACATATGAATTTAATAAT [XGTACX_site3601],8.57 ± 0.42
8,AAAAAATAAATAAACATAAATAAATAAATAAATATA [XGTACX_negctrl_site340],8.71 ± 0.49
9,ATTTCAAAATATAGCTGTACAAAAAATGTAGATATA [XGTACX_site5843],8.9 ± 0.38
10,CTTAAAAAAATATATTGTACATATATATATACAACT [XGTACX_site1281],8.55 ± 0.43
11,TATATTCCCATATAACGTACATATGAGACACCAACT [XGTACX_site8099],8.79 ± 0.42
12,TTAAAATGATTGTTACTTTTTTTTCCGTTTTCTTAA [CACACA_negctrl_site1195],8.46 ± 0.6
13,ATAAATAGTATTATATGTACACATAATATTTATAAA [XGTACX_site4751],8.87 ± 0.57
14,TTTCTCTCTTATAAAATACACACGAACAATCATATT [CACACA_site509],8.77 ± 0.4
15,AAAAATGGTGTTAACACACACATATATATATATATA [CACACA_site571],9.94 ± 0.2
16,TTAATATAGGGAAAAAAAAGAAAATCGAAAATGTGT [CACACA_negctrl_site834],8.72 ± 0.42
17,TATAATTATGATGATAGTACGTATGAGTTCAAAACA [XGTACX_site4211],8.77 ± 0.46
18,CACATTTTTTAAATATTTTTCTACTCCATAATGTTT [CACACA_negctrl_site557],8.66 ± 0.45
19,ATAGTTACACGCCAAAAAAAAAAAAAAAAAAAAAAA [CACACA_negctrl_site1133],8.21 ± 0.42
20,TAACTTCAAAAATCTTGTACATAAATATATAAAACA [XGTACX_site8574],8.47 ± 0.48
21,AATTTTGTCCTATGTTGTACTATTTTGCTCTATTTT [XGTACX_site7139],9.21 ± 0.35
22,TTTCCGGTAATATGGAAATATATGTGGGTTTTTTTT [CACACA_negctrl_site1536],8.62 ± 0.37

row,Sequence,gcPBM binding intensity (ln)
1,ACTATTTTAAAAATATGTACATACGTTGTAATTTAA [XGTACX_site7999],8.69 ± 0.4
2,CGAAGGATAAACATACGTACATATATGTGTATAATA [XGTACX_site779],9.04 ± 0.55
3,CTGTATTTATTTTTCTGTACCAAATCACCCCTTGTA [XGTACX_site395],8.81 ± 0.54
4,TATATTTATAAATGAACACACACGCAATTTGAATCG [CACACA_site3370],9.16 ± 0.29
5,GATGTATAAAATAATACATGCATGTCCTACATATAT [TGCATGCA_site155],9.35 ± 0.48
6,TACGTTTTATGACACACACACAAAAAAAAAAAAAAA [CACACA_site7764],9.05 ± 0.54
7,TTTCTTTTTCGATATACACACTGTATGTGTCTAAAA [CACACA_site6054],8.96 ± 0.57
8,CATCACCTTTTTAAATGTACGCATAATACCAAAAAA [XGTACX_site1587],8.6 ± 0.48
9,GTAGGTTACAAAATGTGAGAGAAGCAAATATAGAAA [CACACA_negctrl_site1819],8.88 ± 0.5
10,TTTTGTTTTTAGTTTATACACACCATATTAATATAA [CACACA_site3102],8.75 ± 0.42
11,TTGTATTAAAATCAAGTGCATATAATTTAAGTTCAT [GTGCAC_site9495],8.6 ± 0.36
12,CTTTGGTTATAACACACATGCACACGTAAATAAATA [TGCATGCA_site976],9.29 ± 0.42
13,TATCATATATTATAGCGTACTTATTTATTTATTTAT [XGTACX_site1676],8.88 ± 0.54
14,AAAAAAAAAAAAAAAAGTACATGAAAAAAAGAAGAA [XGTACX_site8384],8.7 ± 0.66
15,TATAATAGTTCATAGGTGCAATATAATAAATTTATA [GTGCAC_site9573],8.65 ± 0.49
16,ATATAAGTACCTATAACACACATATATTATAAGTAT [CACACA_site7281],9.06 ± 0.46
17,TAGAATAAATTAATTACACACGGAATTATATATATA [CACACA_site1616],8.78 ± 0.42
18,TATAGCAAAATATTCACACAAACTATTAATAAAAGT [CACACA_site5795],8.96 ± 0.4
19,AATGGTTATAATATATGTACATATAAATATACTGAA [XGTACX_site8533],8.84 ± 0.38
20,TATAAAATAAATAACAAAAAAAATAAAATAAAAATA [TGCATGCA_negctrl_site297],8.6 ± 0.7
21,ATAAAACTTATTTAACGTACATATTTTATATACCTT [XGTACX_site5353],8.79 ± 0.48
22,TTTTTTTTTTAGTATGAACACACATATATATTATAA [CACACA_site8957],8.62 ± 0.47

row,Sequence,gcPBM binding intensity (ln)
1,AAAAAATACATCAAAAGAAACATATATATATATATA [GTGCAC_negctrl_site719],9.885 ± 0.035
2,AAGAAGAAACAAAACACACACAGTCTTCTTTTCTAT [CACACA_site3088],9.54 ± 0.42
3,TACAGAATTGTATATAGTACATAAAACAATATATAT [XGTACX_site7275],8.88 ± 0.4
4,GTATATGAATAATATTTTATGGTAATTTTTTTTTTT [XGTACX_negctrl_site512],8.34 ± 0.5
5,GGTGGTAAAAAACCTGCATGTCGAAATATTAAATAC [TGCATGCA_site33],8.86 ± 0.5
6,AAAAAAAAAAAAAAGAGTACTCATATAAAAATATAA [XGTACX_site6551],8.39 ± 0.49
7,TTTTTATAAAAAATTTACACTATATGACAGAAGTAA [XGTACX_negctrl_site481],8.28 ± 0.33
8,ATAAATTAAAAACACACACACATCTGGATACCCCTA [CACACA_site5780],9.77 ± 0.13
9,AATGAAAAGTAAAATACACACACATAATATAATTTA [CACACA_site8608],9.41 ± 0.38
10,TGTGTAAAAATCATGGGTACACATTTTGATACCAAT [XGTACX_site1779],9.02 ± 0.41
11,AAACTTGACGAACACACACACACATATATAAAAAAA [CACACA_site6494],10.1 ± 0.4
12,TCTTTTTATGTTCTAGAGCATTTTATTATTTAACAT [CACACA_negctrl_site1699],8.71 ± 0.52
13,ATACTATTTAAATGGGTGCTAAAAATAACAAAAATT,8.62 ± 0.42
14,ATATTTTTATATGAGGTGCATATAATGACAATTAAG,8.7 ± 0.39
15,GAAGTTAGTGTTGACTGTACATATATATGTATATAT [XGTACX_site7243],8.99 ± 0.38
16,ATTTCTTTTTTTTTTTTTTTTAATGTAAAACATTTT [CACACA_negctrl_site1462],8.49 ± 0.51
17,TTTTCTTTTTGTTCGTGTACACACATGAAATTTATA [XGTACX_site3301],9.04 ± 0.35
18,AAACGTACATAATACACACACATGTATACATATAAA [CACACA_site2048],9.49 ± 0.31
19,TTCCCCCCCAGACACACACACACATACATACCACAT [CACACA_site2305],11.1 ± 0.77
20,AATCGAAATCGTGCACGGACACATGCAGTAGCCGAG [XGTACX_site6001],9.06 ± 0.33
21,ATATATATACACAATAGTACGTGTAATATTATTATT [XGTACX_site2151],8.9 ± 0.38
22,TATACCTATAAATACACACACATATATAAATAAATA [CACACA_site6730],9.46 ± 0.28

row,Sequence,gcPBM binding intensity (ln)
1,AGGAAATTTTTTTTTTTTTTTTTTTTTTTTTTTTAC [TGCATGCA_negctrl_site170],8.33 ± 0.42
2,ATAATATATAATATAGTGCATTATTTATTAATTAAT [GTGCAC_site9852],8.61 ± 0.45
3,TGATTATAAAAGTAGGTGCTACAAAAATTACACATT [GTGCAC_site9530],8.61 ± 0.51
4,ATAGATGTCTTCATATGTACATAAATTCAAGTATAT [XGTACX_site7492],8.68 ± 0.3
5,TGATAAGTATACTAAAGTACATGAAAAATAACTTCC [XGTACX_site6908],8.83 ± 0.41
6,TCCTAATGGTTTAATTGTACAAAAAAAAAAAATATA [XGTACX_site322],8.35 ± 0.51
7,CAAAATATTATGAATTGTACATATTTTAAAACGTTT [XGTACX_site1614],8.62 ± 0.43
8,ATGTAGAAGTAATGCACACATATGTATATATATATA [CACACA_site2494],9.84 ± 0.37
9,GGTCTTTTTATGATATGTACTTATATAATATTATAT [XGTACX_site6458],9.06 ± 0.35
10,AACAGCATGAAGTAAAGTACTAGTTTTATTTATTTA [XGTACX_site1116],8.69 ± 0.49
11,TGGATGAGGACATACACACACACATAAGTTGATACA [CACACA_site3423],9.66 ± 0.41
12,TTATATTTTAAGAAATGTACATGATATAATTATCAA [XGTACX_site8693],8.35 ± 0.41
13,AATGAAAAGGAACATACACACCCCATATAAATATAT [CACACA_site7588],9.62 ± 0.13
14,TATTTCTTATGAAGGACATGCAATATTATTTATCTC [TGCATGCA_site683],8.65 ± 0.44
15,TTTTTTTTAATTTTCTGTACAAATTTATATATACTA [XGTACX_site4251],8.54 ± 0.51
16,AAATAAAAATTACAAGCATGCATTTTCCTATTTGCA [TGCATGCA_site861],8.64 ± 0.35
17,GTGTAAAAATTAAAGTGTACACATATATATATATAT [XGTACX_site2251],9.48 ± 0.54
18,GAATCACTAATTTTTTTACACACCACAATTTAATTT [CACACA_site8311],9.1 ± 0.4
19,TTTCGAATTAAAGCATGTGAAAATTTTCAAAAAATA [XGTACX_negctrl_site577],8.43 ± 0.47
20,ATAATAATATAATATTCACACAATTGAAATAGTGTA [CACACA_site6083],8.61 ± 0.4
21,ACAAAACATAATTGTTGTACAAAAAGAATTATATAT [XGTACX_site8422],9 ± 0.54
22,TATAAATATACAAAGGTGCATAAAAAGTTATGTTTT [GTGCAC_site9832],8.72 ± 0.44
